In all, about 150,000 compounds went through this assay and about 540 (0.36%) showed an effect of 50% or more. Some of the results follow.
What follows are compounds tested on Plasmodium falciparum (assay: Primary screen in NF54 nanoGlo assay, in single point, at 2uM, 72h; a lower Z score goes with more inhibition). Details: timepoint 72 hour.
Format: functional, Erythrocyte
With CCc1[nH]nc(NS(=O)(=O)c2sc(C)nc2C)c1C the “% Inhibition” value was 0% and the Z score was 0.02. O=C(NCCCc1nc2c(s1)CCCC2)c1cscn1 was tested, and the “% Inhibition” value was 9% and the Z score was -1.32. In the case of CN(Cc1ncc[nH]1)Cc1cc2cc3c(cc2nc1-c1ccc(Cl)cc1)OCO3, the “% Inhibition” value is reported as -20% and the Z score is reported as 2.86. With CCc1nnc(CNC(=O)[C@H]2CCC(=O)N(C3CCCC3)C2)s1 the “% Inhibition” value was 8% and the Z score was -1.11. In the case of COc1ccc(NC2(C(=O)NCCc3nc(C)cc(=O)[nH]3)CCCCC2)cc1, the “% Inhibition” value is reported as -1% and the Z score is reported as 0.2. COc1cccc(C2=CCN(S(=O)(=O)c3ccc4c(c3)NC(=O)CO4)C2)c1 was tested, and the “% Inhibition” value was -32% and the Z score was 3.25. With CC(C)c1ccc(-c2noc(CCC(=O)Nc3ncccc3O)n2)cc1 the “% Inhibition” value was -6% and the Z score was 0.77. With Cc1cc(NC(=O)c2ccno2)n(-c2nc3c(F)cccc3s2)n1 the “% Inhibition” value was 17% and the Z score was -2.24. CC(C)(C)CCOc1cnccc1CNC(=O)N1CCOc2ccc(O)cc2C1 was tested, and the “% Inhibition” value was -10% and the Z score was 1.6. For Cc1nc(C)c(C(=O)N[C@H]2CCN(c3ccc(=O)n(CCOc4ccccc4)n3)C2)s1, the “% Inhibition” value was -12% and the Z score was 2.2. With COc1cccc(NC(=O)N[C@H]2CCN(c3ccc(F)cc3)C2=O)c1 the “% Inhibition” value was -2% and the Z score was 0.34. In the case of COc1ccccc1CNC(=O)[C@]1(C)Cn2nc(-c3ccccc3)cc2C(=O)N1c1cc(C)cc(C)c1, the “% Inhibition” value is reported as 10% and the Z score is reported as -1.51. In the case of CCOCCN[C@@H](C(N)=O)c1ccc(Br)cc1F, the “% Inhibition” value is reported as 0% and the Z score is reported as -0.06. Clc1cccc2sc(OC3CCNCC3)nc12 was tested, and the “% Inhibition” value was 21% and the Z score was -2.68. With O=C(Nc1ccc(C(F)(F)F)cc1)N1CCCS(=O)(=O)CC1 the “% Inhibition” value was -4% and the Z score was 0.55. For CC[C@H](C)Cc1nc(C2(COCc3ccccc3)COC2)no1, the “% Inhibition” value was -8% and the Z score was 1.22. COc1cc(Cl)c(C)cc1NC(=O)CNC(=O)Cn1c(C)cc2ccccc2c1=O was tested, and the “% Inhibition” value was -6% and the Z score was 0.99. With Cn1nnc2ccc(NC(=O)Cc3ccc4c(c3)OCC4)cc2c1=O the “% Inhibition” value was 9% and the Z score was -1.06. O=C1NCCOCCCN(C(=O)NCCc2ccccc2)[C@H]2CCC[C@@H]12 was tested, and the “% Inhibition” value was -14% and the Z score was 2.01. In the case of CCc1nc2ccccc2n1[C@@H](CC)C(=O)NCCN(C)S(C)(=O)=O, the “% Inhibition” value is reported as 19% and the Z score is reported as -2.39. CC1CN(C(=O)c2cccc(-n3cncn3)c2)CC(C)N1 (stereo not given) was tested, and the “% Inhibition” value was -3% and the Z score was 0.37. O=C(NC1CC1)c1cc(-c2ccc(F)cc2)c[nH]1 was tested, and the “% Inhibition” value was -13% and the Z score was 1.86. In the case of CCc1ncnc(N2CCOC[C@H]2c2noc(C(C)C)n2)c1F, the “% Inhibition” value is reported as -7% and the Z score is reported as 0.85. With CC1(C)C[C@@H](N2N=C(C3(C)CC3)CC2=O)CCO1 the “% Inhibition” value was -6% and the Z score was 0.76. With CC(=O)N1CCC(CCNC(=O)NC2CCC(C(C)C)CC2)CC1 (stereo not given) the “% Inhibition” value was 34% and the Z score was -3.8. With COc1ccc(Oc2nc(-c3ccc(OC)cc3)ncc2C(=O)NC[C@H]2CCCO2)cc1 the “% Inhibition” value was -5% and the Z score was 1.02. COc1ccc(C(=O)Nc2nc3n(n2)[C@H](c2ccccc2Cl)C=C(c2ccc(C)cc2)N3)cc1 was tested, and the “% Inhibition” value was -3% and the Z score was 0.48. With N#CCCN(C(=O)c1cc(-c2ccc(Br)cc2)nc2ccccc12)c1ccccc1 the “% Inhibition” value was -5% and the Z score was 0.84. In the case of CC(C)C(=O)N1CCC(Nc2cc(N3CCC[C@@H]3CO)ncn2)CC1, the “% Inhibition” value is reported as -8% and the Z score is reported as 1.74. With Fc1cncc(CN2CCCN(Cc3cncc(F)c3)CC2)c1 the “% Inhibition” value was -40% and the Z score was 4.72. COc1ccc(Cl)cc1N1CCC(NC(=O)[C@@H](O)c2ccccc2)C1 (stereo not given in full) was tested, and the “% Inhibition” value was -5% and the Z score was 0.78. c1c(N2CCCC2)c2nonc2c2nonc12 was tested, and the “% Inhibition” value was -12% and the Z score was 2.09. With O=S(=O)(CC1CC1)N[C@H]1CCOC2(CCCC2)C1 the “% Inhibition” value was 35% and the Z score was -3.92. With CC(C)(O)Cn1cc(Br)cn1 the “% Inhibition” value was -5% and the Z score was 0.75. In the case of O=C(NC[C@H](NC(=O)c1ccc[nH]1)C1CCCCC1)c1ccc[nH]1, the “% Inhibition” value is reported as -6% and the Z score is reported as 0.81. COC[C@H](C)NC(=O)c1cn2cc(-c3ccc(OC)cc3F)n(C)c(=O)c2n1 was tested, and the “% Inhibition” value was -26% and the Z score was 5.17. Cn1cc(S(=O)(=O)NC[C@H](OCCO)c2cccs2)cn1 was tested, and the “% Inhibition” value was -4% and the Z score was 0.43. With Cc1cc(NC(=O)N[C@@H](C)c2ccncc2)n(C)n1 the “% Inhibition” value was -12% and the Z score was 2.18. C[C@H](NCCC1CC(O)C1)c1c(Br)ccc(F)c1F (stereo not given in full) was tested, and the “% Inhibition” value was -10% and the Z score was 1.74. With Cc1nc2sccn2c1C(=O)NCCc1noc(CO)n1 the “% Inhibition” value was -5% and the Z score was 0.97. O=C(CCC(=O)Nc1nncs1)NCC1CCOCC1 was tested, and the “% Inhibition” value was -9% and the Z score was 1.36. For Cc1ccc(C(=O)OCC(=O)Nc2ccc3c(c2)OCO3)cn1, the “% Inhibition” value was 32% and the Z score was -4.27. CC(C)(C)OC(=O)N1CCN(C2CN(C(=O)OCCCF)C2)CC1 was tested, and the “% Inhibition” value was -1% and the Z score was 0.2. For CS(=O)(=O)c1ccc(CN2C[C@@H]3OCC(=O)N(c4ccccc4)[C@@H]3C2)cc1, the “% Inhibition” value was -8% and the Z score was 1.18. For O=C(c1cncc(Br)c1)N1CCCCCCC1, the “% Inhibition” value was -7% and the Z score was 1.14. Cn1c(C2CCCC2)nn(CC(F)F)c1=O was tested, and the “% Inhibition” value was -3% and the Z score was 0.4. Cc1noc(C)c1CN1CCC(COc2ccc(C3CC3)nn2)CC1 was tested, and the “% Inhibition” value was -4% and the Z score was 0.44. With COCCN1C[C@@H](Cc2ccc(S(=O)(=O)c3ccccc3)cc2)CC1=O the “% Inhibition” value was -3% and the Z score was 0.31. For CCOc1cc(CCCNc2nccnc2C#N)ccc1OC, the “% Inhibition” value was -11% and the Z score was 1.48. In the case of N#Cc1ccc(NC2CCC(O)CC2)cn1 (stereo not given), the “% Inhibition” value is reported as -2% and the Z score is reported as 0.18. Cc1nc2cc(OCc3nc(C(=O)N4CCN(C)C(C)(C)C4)co3)ccc2s1 was tested, and the “% Inhibition” value was 0% and the Z score was -0.02. In the case of Cc1nn(C)c(C)c1C(=O)C(=O)N(C1CCCC1)C1CC1, the “% Inhibition” value is reported as -7% and the Z score is reported as 1.16. Cc1cccnc1CNC(=O)Cn1ncc(N2CCc3ccccc3C2)cc1=O was tested, and the “% Inhibition” value was 4% and the Z score was -0.49. Cc1cc(-n2sc(Cl)c(C)c2=O)ccc1Cl was tested, and the “% Inhibition” value was -5% and the Z score was 0.69. With CCn1c(Cc2c(C)n[nH]c2C)n[nH]c1=O the “% Inhibition” value was -7% and the Z score was 1.38.
